Structures are written as SMILES.

Drawing on patent US11618753B2 (priority 2018, dated 2023), this text covers IC50 for 17 compounds.

This assay has as its system MLKL phosphorylation, HT29-L23 human colorectal adenocarcinoma cells. Kind of assay: cells. The note with it: read-out: pMLKL HCS Cell Assay (IC50, uM).
Usually IC50 stands for the concentration that inhibits the measured activity by half. `COc1ncc(-c2cc(C(F)(F)F)c3c(N)ncnn23)cc1C(=O)N[C@@H]1CN(C(=O)c2cnnc(Cl)c2)C[C@@H]1F` [Example 1215, 5-[4-amino-5-(trifluoromethyl)pyrrolo[2,1-f][1,2,4]triazin-7-yl]-N-[(3R,4S)-1-(6-chloropyridazine-4-carbonyl)-4-fluoropyrrolidin-3-yl]-2-methoxypyridine-3-carboxamide]: the 50% inhibitory concentration (IC50) was found to be 0.076 µM. With `Cc1cc(F)c(-c2cc(C(F)(F)F)c3c(N)ncnn23)cc1C(=O)N[C@@H]1CN(C(=O)c2cc(F)ccn2)C[C@@H]1F` [Example 822, 5-[4-amino-5-(trifluoromethyl)pyrrolo[2,1-f][1,2,4]triazin-7-yl]-4-fluoro-N-[(3R,4S)-4-fluoro-1-(4-fluoropyridine-2-carbonyl)pyrrolidin-3-yl]-2-methylbenzamide] the figure was 0.011 µM. With `COc1ncc(-c2cc(CN3CCC4(CC3)CC4(F)F)c3c(N)ncnn23)cc1C(=O)N[C@@H]1CN(C(=O)[C@@](C)(O)C(F)(F)F)C[C@@H]1F` [Example 1610, 5-[4-amino-5-({1,1-difluoro-6-azaspiro[2.5]octan-6-yl}methyl)pyrrolo[2,1-f][1,2,4]triazin-7-yl]-N-[(3R,4S)-4-fluoro-1-[(2R)-3,3,3-trifluoro-2-hydroxy-2-methylpropanoyl]pyrrolidin-3-yl]-2-methoxypyridine-3-carboxamide] the figure was 0.00051 µM; with `CC(CCNC(=O)c1cccc(-c2cc(C(F)(F)F)c3c(N)ncnn23)c1)c1ccccc1` (centres unmarked) [Example 2, 3-[4-amino-5-(trifluoromethyl)pyrrolo[2,1-f][1,2,4]triazin-7-yl]-N-(3-phenylbutyl)benzamide], 0.031 µM. Turning to `CCOc1ccc(-c2cc(C(F)(F)F)c3c(N)ncnn23)cc1C(=O)N[C@@H]1CN(C(=O)C(C)(C)F)C[C@@H]1F` [Example 1105, 5-[4-amino-5-(trifluoromethyl)pyrrolo[2,1-f][1,2,4]triazin-7-yl]-2-ethoxy-N-[(3R,4S)-4-fluoro-1-(2-fluoro-2-methylpropanoyl)pyrrolidin-3-yl]benzamide], the 50% inhibitory concentration (IC50) is 0.114 µM. In the case of `COc1ncc(-c2cc(CN3CCC(F)(F)CC3)c3c(N)ncnn23)cc1C(=O)N[C@@H]1CN(C(=O)OC(C)C2CC2)C[C@@H]1F` (stereo partly drawn) [Example 1513, 1-cyclopropylethyl (3R,4S)-3-(5-{4-amino-5-[(4,4-difluoropiperidin-1-yl)methyl]pyrrolo[2,1-f][1,2,4]triazin-7-yl}-2-methoxypyridine-3-amido)-4-fluoropyrrolidine-1-carboxylate] it was 0.0029 µM; in that of `Nc1ncnn2c(-c3ccc(CF)c(C(=O)N[C@@H]4CN(C(=O)C5(F)CC5)C[C@@H]4F)c3)cc(C(F)(F)F)c12` [Example 916, 5-[4-amino-5-(trifluoromethyl)pyrrolo[2,1-f][1,2,4]triazin-7-yl]-N-[(3R,4S)-4-fluoro-1-(1-fluorocyclopropanecarbonyl)pyrrolidin-3-yl]-2-(fluoromethyl)benzamide], 0.015 µM; in that of `Nc1ncnn2c(-c3ccc(Cl)c(C(=O)N[C@@H]4CN(C(=O)c5ccc(F)cc5F)C[C@@H]4F)c3)cc(C(F)(F)F)c12` [Example 944, 5-[4-amino-5-(trifluoromethyl)pyrrolo[2,1-f][1,2,4]triazin-7-yl]-2-chloro-N-[(3R,4S)-1-(2,4-difluorobenzoyl)-4-fluoropyrrolidin-3-yl]benzamide], 0.022 µM.

As for `CC(CC(=O)N1C[C@H](F)[C@H](NC(=O)c2cc(-c3cc(C(F)(F)F)c4c(N)ncnn34)ccc2OCC(F)(F)F)C1)C(F)(F)F` (stereo partly drawn) [Example 1065, 5-[4-amino-5-(trifluoromethyl)pyrrolo[2,1-f][1,2,4]triazin-7-yl]-N-[(3R,4S)-4-fluoro-1-(4,4,4-trifluoro-3-methylbutanoyl)pyrrolidin-3-yl]-2-(2,2,2-trifluoroethoxy)benzamide], the half-maximal inhibitory concentration (IC50) came out at 0.096 µM.

As for `COc1ncc(-c2cc(C(F)(F)F)c3c(N)ncnn23)cc1C(=O)N[C@@H]1CN(C(=O)OC(C)C(F)(F)F)C[C@@H]1F` (stereo partly drawn) [Example 1446, 1,1,1-trifluoropropan-2-yl (3R,4S)-3-{5-[4-amino-5-(trifluoromethyl)pyrrolo[2,1-f][1,2,4]triazin-7-yl]-2-methoxypyridine-3-amido}-4-fluoropyrrolidine-1-carboxylate], the half-inhibitory concentration (IC50) is 0.0019 µM. In the case of `[2H]C([2H])([2H])Oc1ncc(-c2cc(CN3CC(F)(F)C3)c3c(N)ncnn23)cc1C(=O)N[C@@H]1CN(S(=O)(=O)C(c2ccccc2)C(F)(F)F)C[C@@H]1F` (stereo partly drawn) [Example 1293, 5-{4-amino-5-[(3,3-difluoroazetidin-1-yl)methyl]pyrrolo[2,1-f][1,2,4]triazin-7-yl}-N-[(3R,4S)-4-fluoro-1-(2,2,2-trifluoro-1-phenylethanesulfonyl)pyrrolidin-3-yl]-2-(methoxy-d3)nicotinamide] it was 0.0038 µM. As to `COc1ncc(-c2cc(CN3CCCC(C(F)(F)F)C3)c3c(N)ncnn23)cc1C(=O)N[C@@H]1CN(C(=O)[C@@](C)(O)C(F)(F)F)C[C@@H]1F` (stereo partly drawn) [Example 1587, 5-(4-amino-5-{[3-(trifluoromethyl)piperidin-1-yl]methyl}pyrrolo[2,1-f][1,2,4]triazin-7-yl)-N-[(3R,4S)-4-fluoro-1-[(2R)-3,3,3-trifluoro-2-hydroxy-2-methylpropanoyl]pyrrolidin-3-yl]-2-methoxypyridine-3-carboxamide], the half-inhibitory concentration (IC50) amounted to 0.0014 µM. Consider `COc1ncc(-c2c(C#N)cc3c(N)ncnn23)cc1C(=O)N[C@@H]1CN(C(=O)[C@@](C)(O)C(F)(F)F)C[C@@H]1F` [Example 542, 5-(4-amino-6-cyanopyrrolo[2,1-f][1,2,4]triazin-7-yl)-N-((3R,4S)-4-fluoro-1-((R)-3,3,3-trifluoro-2-hydroxy-2-methylpropanoyl)pyrrolidin-3-yl)-2-methoxynicotinamide], for which the IC50 was found to be 0.058 µM. With `Cc1ccc(-c2cc(C(F)(F)F)c3c(N)ncnn23)cc1C(=O)N[C@@H]1CN(C(=O)C2(F)CC2)C[C@@H]1F` [Example 983, 5-[4-amino-5-(trifluoromethyl)pyrrolo[2,1-f][1,2,4]triazin-7-yl]-N-[(3R,4S)-4-fluoro-1-(1-fluorocyclopropanecarbonyl)pyrrolidin-3-yl]-2-methylbenzamide] the figure was 0.0022 µM. With `Cc1nc(C)c(-c2cc(C(F)(F)F)c3c(N)ncnn23)cc1C(=O)N[C@@H]1CN(C(=O)c2cccc(F)c2)C[C@@H]1F` [Example 1191, 5-[4-amino-5-(trifluoromethyl)pyrrolo[2,1-f][1,2,4]triazin-7-yl]-N-[(3R,4S)-4-fluoro-1-(3-fluorobenzoyl)pyrrolidin-3-yl]-2,6-dimethylpyridine-3-carboxamide], the IC50 was 0.022 µM.

On to `Cc1nc(C)c(-c2cc(C(F)(F)F)c3c(N)ncnn23)cc1C(=O)N1CCOC(Cc2ccccc2)C1` (centres unmarked) [Example 528, 7-[5-(2-benzylmorpholine-4-carbonyl)-2,6-dimethylpyridin-3-yl]-5-(trifluoromethyl)pyrrolo[2,1-f][1,2,4]triazin-4-amine], for which the IC50 is 0.43 µM.

Turning to `CCc1c(F)cc(-c2cc(C(F)(F)F)c3c(N)ncnn23)cc1C(=O)N[C@@H]1CN(C(=O)C2CCC(F)(F)CC2)C[C@@H]1F` [Example 660, 5-[4-amino-5-(trifluoromethyl)pyrrolo[2,1-f][1,2,4]triazin-7-yl]-N-[(3R,4S)-1-(4,4-difluorocyclohexanecarbonyl)-4-fluoropyrrolidin-3-yl]-2-ethyl-3-fluorobenzamide], the half-inhibitory concentration (IC50) was found to be 0.0094 µM.
